Experimental data from PubChem BioAssay AID624417 (National Center for Advancing Translational Sciences (NCATS), 2012).
“And” between values parts separate entries of the source, which are not always exact repeats. Identical values can stand only once. Hit rate of the full screen: of about 410,000 compounds, about 6,400 (1.6%) were called active. The inconclusive results got no clear call from the source; some entries with a clear call stand among them for comparison. Calls come from the whole dose curve; as a rule, active = well fitted inhibition curve with a large enough effect; inconclusive = small, poorly fitted or top-dose-only effect; inactive = no such curve, though single readings can be large or run the other way. A potency beside an inconclusive call is a rough fit, not a confirmed value.

Each compound was assayed against Glucagon-like peptide 1 receptor (Homo sapiens) (UniProt P43220) (assay: qHTS of GLP-1 Receptor Inverse Agonists (Inhibition Mode)). Conditions: HEK293 GLP-1R CRE-luciferase, luminescence, 24 h, GLP-1R form is constitutively active; activity change, negative = inhibition: at 38.3 µM (top of the series) unless noted.
How it was run: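 Seeding at 200 cells/uL, 12 h culture, 24 hr compound treatment, then luciferase reagent and a luminescence read; cells are HEK293 stably expressing a constitutively active GLP-1R plus cAMP-responsive luciferase.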
% is set by controls: 0 for no effect and ±100 for the full control effect; potency is the fitted concentration of half-maximal effect; tags give direction and shape of the fitted curve.
Note: nearly all actives have a fitted effect of over 55% in size.

Sequence of UniProt P43220 (P43220 whole entry, looked up): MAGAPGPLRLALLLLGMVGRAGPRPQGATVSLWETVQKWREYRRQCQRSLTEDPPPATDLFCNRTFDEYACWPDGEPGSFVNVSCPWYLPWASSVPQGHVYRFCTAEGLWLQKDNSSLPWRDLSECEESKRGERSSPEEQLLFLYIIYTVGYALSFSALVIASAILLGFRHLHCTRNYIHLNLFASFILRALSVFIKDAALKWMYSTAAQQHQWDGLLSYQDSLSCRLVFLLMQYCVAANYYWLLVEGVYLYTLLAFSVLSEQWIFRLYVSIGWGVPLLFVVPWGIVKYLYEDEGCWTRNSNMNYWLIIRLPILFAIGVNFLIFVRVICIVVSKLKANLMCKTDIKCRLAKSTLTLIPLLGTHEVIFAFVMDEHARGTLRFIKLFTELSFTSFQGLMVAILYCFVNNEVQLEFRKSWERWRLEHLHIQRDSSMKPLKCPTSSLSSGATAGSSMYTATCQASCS

Compound | Potency | activity change, negative = inhibition
O=C(Nc1ccccc1)c1cccc2c(=O)c3c([nH]c12)CCCC3 | inactive | –
CCOC(=O)N1CCN(C(=O)CN(c2cccc(Cl)c2C)S(=O)(=O)c2ccc(C)cc2)CC1 | inconclusive: 11.2 µM [inhibitor, partial curve, poor fit] | –
COc1ccccc1-c1nc(-c2ccc(Br)o2)no1 | inconclusive: 10 µM [inhibitor, single point] and inconclusive: 20 µM [inhibitor, single point] | –
CCC[C@H]1CC(=O)C=C(c2ccc(OC)cc2)ON1C(=O)OC(C)(C)C | inconclusive: 14.1 µM [inhibitor, single point] | –
COc1ccccc1OCCn1cc(C(=O)c2cccs2)c2ccccc21 | inconclusive: 28.2 µM [inhibitor, single point] | –
O=C(CCc1ccc(S(=O)(=O)NCc2ccccc2)cc1)NCc1cccnc1 | inactive | –
CCOC(=O)[C@]12CCCC=C1N(Cc1cccc3ccccc13)C(=O)[C@H](CC(=O)NCc1cccc3ccccc13)C2 | inconclusive: 22.4 µM [inhibitor, single point] | –
CCCCCc1cc(=O)oc2c(C(CCN3CCN(c4ccccc4)CC3)c3ccc(N(C)C)cc3)c(OC)cc(OC)c12 (configuration not stated) | inconclusive: 12.6 µM [inhibitor, single point] | –
CCOc1c2ccc(C(=O)NCc3ccc(C(F)(F)F)cc3C(F)(F)F)cc2nn1C | inconclusive: 11.2 µM [inhibitor, partial curve, poor fit] | –
CCCCC(CC)C(=O)Nc1ccc(S(=O)(=O)N2CCCC2)cc1 (configuration not stated) | inconclusive: 10 µM [inhibitor, partial curve, poor fit] | –
Cn1c(=O)c2c(nc(SCCN3CCCCC3)n2Cc2ccc(Cl)cc2)n(C)c1=O | inconclusive: 11.2 µM [inhibitor, partial curve, poor fit] | –
CC(SC1=NCCN1S(=O)(=O)c1ccccc1)c1ccccc1 (configuration not stated) | inconclusive: 10 µM [inhibitor, partial curve, poor fit] | –
CC1(C(=O)Nc2ccc(Cl)c(Cl)c2)CCN1Cc1ccccc1OC(F)F (configuration not stated) | inconclusive: 1 µM [inhibitor, full curve, poor fit] | –
O=C(CC1N=C2c3ccccc3N=C(SCc3ccccc3Cl)N2C1=O)NCc1ccco1 (configuration not stated) | inconclusive: 10 µM [inhibitor, partial curve] | –
CCOc1ccccc1NC(=O)C1CCN(S(=O)(=O)c2c(C)noc2/C=C/c2ccc(C)cc2)CC1 | inactive | –
Cc1ccccc1NC(=O)CSc1nnc(-c2ccccc2)n1-c1ccccc1 | inconclusive: 0.891 µM [inhibitor, full curve, poor fit] | –
O=C(Nc1cccc(-n2cnnn2)c1)c1ccoc1COc1ccc(Cl)cc1 | inconclusive: 1.78 µM [inhibitor, partial curve, poor fit] | –
CCCCC(=O)Nc1nnn(CCC)n1 | inactive | –
COc1cc(F)ccc1-c1cc(C(=O)NCC2CCCCC2)[nH]n1 | inconclusive: 11.2 µM [inhibitor, partial curve, poor fit] | –
CCOc1ccc(C(=O)N/N=C(\c2ccccc2)c2ccccn2)cc1 | inconclusive: 5.62 µM [inhibitor, full curve, poor fit] | –
Cn1c(SCC(=O)N2CCCC2)nc2cccnc21 | inactive | –

Compound | Potency | activity change, negative = inhibition
Cc1c(C(=O)NC2CCS(=O)(=O)C2)oc2ccccc12 (configuration not stated) | inactive | –
CCCCCn1c(CN2CCN(c3cccc(Cl)c3)CC2)nc2c1c(=O)[nH]c(=O)n2C | inconclusive: 28.2 µM [inhibitor, single point] | –
COc1cc(/C=C/c2cc(C(F)(F)F)[nH]c(=O)n2)cc(OC)c1OC | inconclusive: 28.2 µM [inhibitor, single point] | –
O=C(Nc1ccc(F)cc1)[C@H](Cc1ccccc1)N1Cc2ccccc2C1=O | inconclusive: 28.2 µM [inhibitor, single point] | –
CCOCCCNC(=S)N1CCCN(c2nc3cc(C)cc(C)c3cc2C#N)CC1 | inconclusive: 11.2 µM [inhibitor, partial curve, poor fit] | –
CCN(CC(=O)Nc1ccc(NC(C)=O)cc1)CC(=O)Nc1ccc(Cl)c(Cl)c1 | inactive | –
CC1CCCCN1Cc1c(C#N)c2ccccc2n1C (configuration not stated) | inconclusive: 12.6 µM [inhibitor, single point] | –
CC(C)[C@H](NC(=O)N1CCn2c1nc1ccccc12)C(=O)N1CCCCC1 | inconclusive: 11.2 µM [inhibitor, single point] | –
Cc1ccc(C(=O)Nc2ccc(Cl)c(-c3nc4ncccc4o3)c2)c(C)c1 | inconclusive: 11.2 µM [inhibitor, single point] | –
Cc1ccccc1OCc1ccc(-c2nc(C#N)c(NCCCN(C)C)o2)o1 | inactive | –
CCOC(=O)C1CCN(C(c2ccccc2OC)c2c(O)cc(C)n(CCOC)c2=O)CC1 (configuration not stated) | inactive | –
O=C(N/N=C/c1ccccn1)c1ccc(Cl)cc1 | inconclusive: 7.08 µM [inhibitor, partial curve, poor fit] | –
CCN(CC)C(=O)C(C(=O)c1cccc([N+](=O)[O-])c1)n1cc(Cl)ccc1=O (configuration not stated) | inactive | –
CCOc1ccc(CNC(=O)c2cc3oc4ccccc4c3n2C)cc1 | inconclusive: 5.62 µM [inhibitor, full curve, poor fit] and inconclusive: 2.82 µM [inhibitor, full curve] | –
Cc1ccc(N2CC(C(=O)Nc3ccc(S(=O)(=O)NCC4CCCO4)cc3)CC2=O)cc1C (configuration not stated) | inconclusive: 28.2 µM [inhibitor, single point] | –
CN(C)c1ccc(CNc2nc(-c3ccco3)nn2S(=O)(=O)c2ccc3ccccc3c2)cc1 | inactive | –
O=C(NCCC(F)(F)F)c1cccc2c(-c3ccc(F)c(F)c3)coc12 | inconclusive: 10 µM [inhibitor, single point] | –
ClCC1CSC(=NC23CC4CC(CC(C4)C2)C3)O1 (configuration not stated) | inconclusive: 11.2 µM [inhibitor, partial curve, poor fit] | –
CCN(CCNC(=O)CN1CCN(Cc2ccc(Cl)cc2)C1=O)c1ccccc1 | inconclusive: 6.31 µM [inhibitor, partial curve, poor fit] | –
Cc1cc(C)c2c(CC(=O)N(Cc3ccc(N(C)C)cc3)Cc3ccco3)coc2c1 | inconclusive: 12.6 µM [inhibitor, single point] | –
Cc1nc2nc[nH]c2cc1Br | inactive | –

Compound | Potency | activity change, negative = inhibition
COc1cc(C(=O)OCC(=O)N(CC(C)C)C2CCS(=O)(=O)C2)ccc1OCC(C)C (configuration not stated) | inconclusive: 28.2 µM [inhibitor, single point] | –
CCOC(=O)c1c(C)[nH]c(N=Nc2ccccc2C)c1C | inconclusive: 31.6 µM [inhibitor, partial curve, poor fit] | –
COc1cc(-c2noc(C)c2C#Cc2ccccn2)cc(OC)c1OC | inconclusive: 0.251 µM [inhibitor, full curve, poor fit] | –
COc1cccc(-n2cc(CN(C)Cc3nc(Cc4ccccc4)no3)cn2)c1 | inconclusive: 31.6 µM [inhibitor, partial curve, poor fit] | –
COc1ccc(-c2ccc(C(=O)NCC3CCOCC3)c3occc23)c(C)c1 | inconclusive: 11.2 µM [inhibitor, partial curve, poor fit] | –
CCN(CC)CCCNC(=O)c1cc2nc3c(c(C(F)(F)F)n2n1)CCc1ccccc1-3 | inconclusive: 28.2 µM [inhibitor, single point] | –
COc1ccccc1CNc1ccc(-c2nc(C(C)C)no2)cc1[N+](=O)[O-] | inconclusive: 12.6 µM [inhibitor, single point] | –
Cn1c(SCc2c(Cl)cccc2Cl)nc(C(F)(F)F)cc1=O | inconclusive: 2.82 µM [inhibitor, partial curve, poor fit] | –
Cc1cccc(C)c1Nc1c(-c2ccc(Cl)s2)nc2ncccn12 | inconclusive: 14.1 µM [inhibitor, single point] | –
NC(=O)CSc1nccn1Cc1ccccc1 | – | inactive: -7.13% [at 7.66 µM]
COc1ccc2oc(C(=O)Nc3ccc(S(=O)(=O)N(C)C4CCN(C)CC4)cc3)c(C)c2c1 | inconclusive: 6.31 µM [inhibitor, partial curve, poor fit] | –
CCOc1cc(/C=N/NC(=O)CNc2cccc(C)c2)ccc1OC(=O)c1ccccc1 | inconclusive: 28.2 µM [inhibitor, single point] | –
N#Cc1ccc(CSc2nnc(-c3ccccn3)n2-c2ccc(Cl)cc2)cc1 | inconclusive: 10 µM [inhibitor, partial curve, poor fit] | –
COc1cccc(N(CC(=O)NCC2CCCO2)C(=O)CNS(=O)(=O)c2ccccc2)c1 (configuration not stated) | inactive | –
CC1CCN(C(=O)COC(=O)c2cc3ccccc3cc2O)CC1 | inconclusive: 7.08 µM [inhibitor, partial curve] | –
CCOC(=O)[C@@H]1[C@H]2COc3cc(OC)ccc3[C@@H]2N2C(=O)N(c3ccc(OC)cc3)C(=O)[C@@]12C | inactive | –
Cc1cc(C)c2nc(-c3ccccn3)cc(C(=O)Nc3cc(C)on3)c2c1 | inconclusive: 12.6 µM [inhibitor, single point] | –
CC(C)C(CCNC(=O)CC(Cc1ccccc1)c1ccco1)c1ccco1 (configuration not stated) | inconclusive: 14.1 µM [inhibitor, single point] | –
CCCCOc1ccc(-c2cc3c(=O)n(CC(=O)Nc4ccc(Cl)cc4Cl)ccn3n2)cc1 | inactive | –
Cc1ccc(C)c(S(=O)(=O)N2CCC(c3nc4c(nnn4Cc4ccc5c(c4)OCCO5)c(=O)[nH]3)CC2)c1 | inconclusive: 22.4 µM [inhibitor, single point] | –
